From patent US11590142B2, “Oxazolidinone antibiotic compounds and process of preparation” (Bugworks Research, Inc., priority 2018, dated 2023)

How the values were obtained:
E. coli DNA gyrase = E. coli DNA gyrase (Escherichia coli (strain K12), UniProt P0AES4+P0AES6); conditions: read-out: E. coli DNA Gyrase IC50
Description: E. coli gyrase supercoiling and its inhibition was assayed using a kit procured from Inpiralis (K0001) and the protocol (PMID: 2172086) was adapted with necessary modifications. The compounds to be tested weree incubated for 10 minutes with 2.5 nM of E. coli DNA gyrase in a 30 μl reaction volume and 3.2% DMSO. The reactions were then started with the addition of 60 ng relaxed pBR322 plasmid DNA and continued for 45 min at 37° C. The reaction mixture contained 35 mM Tris.HCl (pH 7.5), 24 mM KCl, 1.8 mM spermidine, 4 mM MgCl2, 2 mM DTT, 6.5% (w/v) glycerol, 0.1 mg/mL BSA, and 1 mM ATP. The reaction was then stopped by addition of 0.75 L of Proteinase K (20 mg/mL) and 3 μL of 2% SDS and further incubated at 37° C. for 30 min. This was followed by the addition of 4 μL of STEB (40% (w/v) sucrose, 100 mM Tris-HCl pH8, 1 mM EDTA, 0.5 mg/ml Bromophenol Blue), and the supercoiled/relaxed forms of plasmid DNA were separated by agarose gel electrophoresis. The 1% agarose gels were run for 3 h at 4V/cm in 1×TAE (40 mM Tris, 20 mM Acetic acid, 1 mM EDTA). To visualize the DNA the gels were stained for 10 min with 0.7 g/mL ethidium bromide and excess dye was removed by several washes with water. IC50 were determined by quantifying the supercoiled and relaxed DNA in each of the reactions from a gel image by a densitometric method using the Quantity One Software (Bio-rad).

E. coli topoisomerase IV = E. coli topoisomerase IV (Escherichia coli (strain K12), UniProt P0AFI2+P20083); experiment: biochemical
Description: E. coli topoisomerase IV decatenation activity and its inhibition was assayed using a kit procured from Inpiralis (D4002) and the kit protocol was adapted with necessary modifications similar to the gyrase supercoiling assays. The compounds to be tested were incubated for 10 minutes with 5 nM of E. coli topoisomerase IV in a 30 μl reaction volume and 3.2% DMSO. The reactions were started with the addition of 60 ng of kDNA and continued for 40 min at 37° C. The final reaction mixture contains 40 mM Tris.HCl (pH 7.6), 100 mM potassium glutamate, 10 mM magnesium acetate, 10 mM DTT, 1 mM ATP, and 50 μg/ml albumin. The reactions were stopped by addition of 0.75 L of Proteinase K (20 mg/mL) and 3 L of 2% SDS and further incubated at 37° C. for 30 min. This was followed by the addition of 4 L of STEB (40% (w/v) sucrose, 100 mM Tris-HCl pH8, 1 mM EDTA, 0.5 mg/ml Bromophenol Blue) and the kDNA/minicircles forms were separated by agarose gel electrophoresis. The 1% agarose gels were run for 3 h at 4V/cm in 1×TAE (40 mM Tris, 20 mM Acetic acid, 1 mM EDTA). To visualize the DNA, the gels were stained for 10 min with 0.7 μg/mL ethidium bromide and excess dye was removed by several washes with water. IC50 were determined by quantifying the Kinetoplast DNA band inside the gel well and decatenated minicircles that migrate into the gel in each of the reactions from a gel image by a densitometric method using the Quantity One Software (Bio-rad).

In the case of `Cn1c(=O)cnc2ccc(OCCNCCC3CN(c4ccc5c(n4)NC(=O)CO5)C(=O)O3)nc21` (stereo not shown) [Compound 1, 6-(5-(2-((2-((4-methyl-3-oxo-3,4-dihydropyrido[2,3-b]pyrazin-6-yl)oxy)ethyl)amino)ethyl)-2-oxooxazolidin-3-yl)-2H-pyrido[3,2-b][1,4]oxazin-3(4H)-one], the IC50 (E. coli DNA gyrase) is reported as 67 nM and the IC50 (E. coli topoisomerase IV) is reported as 41 nM.

`Cn1c(=O)ccc2ncc(OCCNCCC3CN(c4ccc5c(n4)NC(=O)CO5)C(=O)O3)nc21` (stereo not shown) [Compound 2, 6-(5-(2-((2-((5-methyl-6-oxo-5,6-dihydropyrido[2,3-b]pyrazin-3-yl)oxy)ethyl)amino)ethyl)-2-oxooxazolidin-3-yl)-2H-pyrido[3,2-b][1,4]oxazin-3(4H)-one] gave an IC50 (E. coli DNA gyrase) of 27 nM and an IC50 (E. coli topoisomerase IV) of 20 nM.

In the case of `Cn1c(=O)cnc2ccc(OCCNC[C@H]3CN(c4ccc5c(n4)NC(=O)CO5)C(=O)O3)nc21` [Compound 3, (S)-6-(5-(((2-((4-methyl-3-oxo-3,4-dihydropyrido[2,3-b]pyrazin-6-yl)oxy)ethyl)amino)methyl)-2-oxooxazolidin-3-yl)-2H1-pyrido[3,2-b][1,4]oxazin-3(4H)-one], the IC50 (E. coli topoisomerase IV) is reported as 125 nM.

Work on `Cn1c(=O)cnc2ccc(OCCNC[C@@H]3CN(c4ccc5c(n4)NC(=O)CO5)C(=O)O3)nc21` [Compound 4, (R)-6-(5-(((2-((4-methyl-3-oxo-3,4-dihydropyrido[2,3-b]pyrazin-6-yl)oxy)ethyl)amino)methyl)-2-oxooxazolidin-3-yl)-2H-pyrido[3,2-b][1,4]oxazin-3(4H)-one] yielded an IC50 (E. coli DNA gyrase) of 51 nM and an IC50 (E. coli topoisomerase IV) of 241 nM.

With `Cn1c(=O)ccc2ncc(OCCNC[C@H]3CN(c4ccc5c(n4)NC(=O)CO5)C(=O)O3)nc21` [Compound 5, (S)-6-(5-(((2-((5-methyl-6-oxo-5,6-dihydropyrido[2,3-b]pyrazin-3-yl)oxy)ethyl)amino)methyl)-2-oxooxazolidin-3-yl)-2H1-pyrido[3,2-b][1,4]oxazin-3(4H)-one] the IC50 (E. coli topoisomerase IV) was 176 nM.

`Cn1c(=O)cnc2ccc(OCCNC[C@H]3CN(c4cnc5c(n4)NC(=O)CO5)C(=O)O3)nc21` [Compound 7, (S)-6-(5-(((2-((4-methyl-3-oxo-3,4-dihydropyrido[2,3-b]pyrazin-6-yl)oxy)ethyl)amino)methyl)-2-oxooxazolidin-3-yl)-2H-pyrazino[3,2-b][1,4]oxazin-3(4H)-one] was tested, and the IC50 (E. coli DNA gyrase) was 18 nM and the IC50 (E. coli topoisomerase IV) was 48 nM.
